According to PubChem BioAssay (NCI):
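1) Cells in 96-well plates. 2) Compound, 48 h, 5 concentrations. 3) Linear interpolation between surrounding doses. 4) Unreached endpoint = highest concentration. GI50: concentration for 50% inhibition of growth. TGI denotes the concentration required for complete inhibition of growth.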

Test system: NCI-H322M lung
Assay: growth of human tumour cells (NCI), 48 h

Work on `CC(=O)Nc1ccc(NC(=O)Nc2cccc(-c3nc(-c4ccc(NC(=O)c5cccnc5)cc4Cl)no3)c2)cc1C(F)(F)F` yielded a GI50 of 741 nM and a TGI of 2630 nM.
